The source of these data is the supplement of paper PMC4967469.

IC50 is the fitted dose that halves viability relative to control wells, and lower means more sensitive; where the fit passes the top or lowest dose, that dose stands as a limit. For AUC the same curve is integrated over the 256-fold range of doses and scaled to a fraction; it is 1 without any effect and falls as sensitivity rises. A top dose marked as inferred is not printed in the source and was worked back from the curve model.

Compound in this assay: COc1ncc(-c2ccc3nccc(-c4ccnnc4)c3c2)cc1NS(=O)(=O)c1ccc(F)cc1F [GSK2126458]
As to the kind of experiment: Viability of human cancer cell lines after 72 h of drug (GDSC screen). The settings on record: top dose inferred. The procedure:
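Human cancer cell lines in 384-well plates, medium with 10% serum, drug for 72 h over a 256-fold dose range (nine 2-fold or five 4-fold steps up to the top dose). Adherent lines were fixed and stained with the nucleic acid dye Syto60, suspension lines read with resazurin; signal relative to control wells, capped at 0 and 100%. One two-parameter sigmoid per drug and line, fitted in a mixed model over all curves with the slope shared within a line.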

For “NB7 (neuroblastoma, adherent, top dose 0.128 µM)”, the AUC worked out at 0.525 and the IC50 (in general, the midpoint of a concentration-inhibition curve) was found to be 9.37 nM.

Turning to “NB10 (neuroblastoma, adherent, top dose 0.128 µM)”, the AUC is 0.894 and the IC50 is greater than 128 nM.

On to “NB12 (neuroblastoma, adherent, top dose 0.128 µM)”, for which the AUC came to 0.779 and the IC50 worked out at 72 nM.

With “NB13 (neuroblastoma, adherent, top dose 0.128 µM)”, the AUC amounted to 0.913 and the IC50 is greater than 128 nM.

For the cell line “NB14 (neuroblastoma, adherent, top dose 0.128 µM)”, the AUC turned out to be 0.97 and the IC50 was greater than 128 nM.

Consider “NB17 (neuroblastoma, adherent, top dose 0.128 µM)”, for which the AUC was 0.814 and the IC50 came to 83.4 nM.

On to “NB69 (neuroblastoma, adherent, top dose 0.128 µM)”, for which the AUC was determined as 0.279 and the IC50 was 2.06 nM.

Consider “NB(TU)1-10 (neuroblastoma, adherent, top dose 0.128 µM)”, for which the AUC came out at 0.982 and the IC50 is greater than 128 nM.

Take “NB-4 (acute myeloid leukaemia, suspension, top dose 0.128 µM)”: the AUC came to 0.376 and the IC50 came out at 3.9 nM.

For the cell line “NCC021 (kidney, adherent, top dose 0.128 µM)”, the AUC is 0.526 and the IC50 is 9.51 nM.

In the case of “NCI-H23 (lung adenocarcinoma, adherent, top dose 0.128 µM)”, the AUC turned out to be 0.954 and the IC50 is greater than 128 nM.

On to “NCI-H28 (mesothelioma, adherent, top dose 0.128 µM)”, for which the AUC was determined as 0.946 and the IC50 is greater than 128 nM.

As for “NCI-H64 (small cell lung carcinoma, suspension, top dose 0.128 µM)”, the AUC stood at 0.457 and the IC50 is 6.29 nM.

Consider “NCI-H69 (small cell lung carcinoma, suspension, top dose 0.128 µM)”, for which the AUC worked out at 0.686 and the IC50 amounted to 28.4 nM.

As for “NCI-H82 (small cell lung carcinoma, suspension, top dose 0.128 µM)”, the AUC was 0.975 and the IC50 was greater than 128 nM.

With “NCI-H187 (small cell lung carcinoma, suspension, top dose 0.128 µM)”, the AUC was 0.814 and the IC50 was determined as 77.6 nM.

“NCI-H196 (small cell lung carcinoma, adherent, top dose 0.128 µM)”: the AUC was 0.796 and the IC50 stood at 62.9 nM.

For “NCI-H209 (small cell lung carcinoma, suspension, top dose 0.128 µM)”, the AUC came out at 0.806 and the IC50 was found to be 70.6 nM.

Turning to “NCI-H211 (small cell lung carcinoma, adherent, top dose 0.128 µM)”, the AUC stood at 0.753 and the IC50 amounted to 41.7 nM.

In the case of “NCI-H226 (lung squamous cell carcinoma, adherent, top dose 0.128 µM)”, the AUC is 0.863 and the IC50 was 120 nM.

As to “NCI-H292 (lung adenocarcinoma, adherent, top dose 0.128 µM)”, the AUC was found to be 0.895 and the IC50 is greater than 128 nM.

In the case of “NCI-H322M (lung adenocarcinoma, suspension, top dose 0.128 µM)”, the AUC turned out to be 0.821 and the IC50 amounted to 97.8 nM.

As for “NCI-H345 (small cell lung carcinoma, suspension, top dose 0.128 µM)”, the AUC came out at 0.957 and the IC50 was greater than 128 nM.

Turning to “NCI-H358 (lung adenocarcinoma, adherent, top dose 0.128 µM)”, the AUC came to 0.576 and the IC50 turned out to be 13.2 nM.

Take “NCI-H441 (lung adenocarcinoma, adherent, top dose 0.128 µM)”: the AUC turned out to be 0.977 and the IC50 was greater than 128 nM.

As for “NCI-H446 (small cell lung carcinoma, semi-adherent, top dose 0.128 µM)”, the AUC is 0.474 and the IC50 came to 6.77 nM.

As to “NCI-H460 (large cell lung carcinoma, adherent, top dose 0.128 µM)”, the AUC was 0.986 and the IC50 was greater than 128 nM.

In the case of “NCI-H510A (small cell lung carcinoma, semi-adherent, top dose 0.128 µM)”, the AUC is 0.954 and the IC50 was greater than 128 nM.

On to “NCI-H520 (lung squamous cell carcinoma, adherent, top dose 0.128 µM)”, for which the AUC was 0.477 and the IC50 came to 6.91 nM.

Regarding “NCI-H522 (lung adenocarcinoma, adherent, top dose 0.128 µM)”, the AUC was 0.938 and the IC50 was greater than 128 nM.

In the case of “NCI-H524 (small cell lung carcinoma, suspension, top dose 0.128 µM)”, the AUC was 0.769 and the IC50 was 43.5 nM.

In the case of “NCI-H526 (small cell lung carcinoma, suspension, top dose 0.128 µM)”, the AUC was 0.784 and the IC50 worked out at 52 nM.

Consider “NCI-H596 (lung adenocarcinoma, adherent, top dose 0.128 µM)”, for which the AUC is 0.522 and the IC50 is 9.34 nM.

For the cell line “NCI-H630 (large intestine, adherent, top dose 1.024 µM)”, the AUC was 0.893 and the IC50 is greater than 1020 nM.

On to “NCI-H647 (non-small cell lung carcinoma, adherent, top dose 0.128 µM)”, for which the AUC turned out to be 0.514 and the IC50 came out at 8.77 nM.

Take “NCI-H650 (lung adenocarcinoma, adherent, top dose 0.128 µM)”: the AUC was 0.722 and the IC50 was 36.6 nM.

For “NCI-H661 (large cell lung carcinoma, adherent, top dose 0.128 µM)”, the AUC came to 0.803 and the IC50 was found to be 79.5 nM.

With “NCI-H716 (large intestine, suspension, top dose 1.024 µM)”, the AUC was 0.633 and the IC50 is 164 nM.

On to “NCI-H720 (lung carcinoid, suspension, top dose 0.128 µM)”, for which the AUC turned out to be 0.987 and the IC50 was greater than 128 nM.

In the case of “NCI-H727 (lung carcinoid, adherent, top dose 0.128 µM)”, the AUC was determined as 0.778 and the IC50 amounted to 92.7 nM.

As for “NCI-H747 (large intestine, adherent, top dose 1.024 µM)”, the AUC was found to be 0.199 and the IC50 was 6.49 nM.

Consider “NCI-H748 (small cell lung carcinoma, suspension, top dose 0.128 µM)”, for which the AUC was 0.865 and the IC50 was greater than 128 nM.

In the case of “NCI-H810 (large cell lung carcinoma, adherent, top dose 0.128 µM)”, the AUC was 0.75 and the IC50 was found to be 40.4 nM.

For “NCI-H838 (lung adenocarcinoma, adherent, top dose 0.128 µM)”, the AUC turned out to be 0.983 and the IC50 was greater than 128 nM.

Consider “NCI-H841 (small cell lung carcinoma, adherent, top dose 0.128 µM)”, for which the AUC is 0.768 and the IC50 was determined as 47.9 nM.

For “NCI-H847 (small cell lung carcinoma, adherent, top dose 0.128 µM)”, the AUC stood at 0.384 and the IC50 was 4.11 nM.

As for “NCI-H1048 (small cell lung carcinoma, adherent, top dose 0.128 µM)”, the AUC stood at 0.325 and the IC50 is 2.75 nM.

Take “NCI-H1092 (small cell lung carcinoma, suspension, top dose 0.128 µM)”: the AUC was found to be 0.874 and the IC50 was 127 nM.

As to “NCI-H1155 (large cell lung carcinoma, suspension, top dose 0.128 µM)”, the AUC amounted to 0.926 and the IC50 is greater than 128 nM.

Consider “NCI-H1299 (large cell lung carcinoma, adherent, top dose 0.128 µM)”, for which the AUC amounted to 0.888 and the IC50 was greater than 128 nM.

Regarding “NCI-H1304 (small cell lung carcinoma, suspension, top dose 0.128 µM)”, the AUC was found to be 0.544 and the IC50 worked out at 10.7 nM.

As for “NCI-H1355 (lung adenocarcinoma, adherent, top dose 0.128 µM)”, the AUC stood at 0.945 and the IC50 is greater than 128 nM.

As to “NCI-H1395 (lung adenocarcinoma, adherent, top dose 0.128 µM)”, the AUC stood at 0.881 and the IC50 was greater than 128 nM.

As to “NCI-H1417 (small cell lung carcinoma, suspension, top dose 0.128 µM)”, the AUC is 0.684 and the IC50 was determined as 29.1 nM.

As to “NCI-H1435 (lung adenocarcinoma, semi-adherent, top dose 0.128 µM)”, the AUC stood at 0.952 and the IC50 is greater than 128 nM.

For the cell line “NCI-H1436 (small cell lung carcinoma, suspension, top dose 0.128 µM)”, the AUC came to 0.788 and the IC50 is 64.8 nM.

Take “NCI-H1437 (lung adenocarcinoma, adherent, top dose 0.128 µM)”: the AUC turned out to be 0.666 and the IC50 came out at 23.7 nM.

Turning to “NCI-H1563 (lung adenocarcinoma, adherent, top dose 0.128 µM)”, the AUC was determined as 0.71 and the concentration for half-maximal inhibition (IC50) stood at 35.5 nM.

Regarding “NCI-H1568 (lung adenocarcinoma, adherent, top dose 0.128 µM)”, the AUC came to 0.751 and the IC50 was found to be 51.4 nM.
